Article PMC10920896 (2024)

Legend:
[1] = molecular target: T1, biotinylated murine gp130_(P496L) (D1-D6) with C-terminal biotin acceptor peptide and hexa-histidine tag (murine, UniProt Q00560 23-617, P496L, biotin on the C-terminal biotin acceptor peptide (in vitro, BirA)); test: SPR
[2] = molecular target: T2, biotinylated murine wildtype gp130 (D1-D6) with C-terminal biotin acceptor peptide and hexa-histidine tag (murine, UniProt Q00560 23-617, biotin on the C-terminal biotin acceptor peptide (in vitro, BirA)); test: SPR
T2 chain: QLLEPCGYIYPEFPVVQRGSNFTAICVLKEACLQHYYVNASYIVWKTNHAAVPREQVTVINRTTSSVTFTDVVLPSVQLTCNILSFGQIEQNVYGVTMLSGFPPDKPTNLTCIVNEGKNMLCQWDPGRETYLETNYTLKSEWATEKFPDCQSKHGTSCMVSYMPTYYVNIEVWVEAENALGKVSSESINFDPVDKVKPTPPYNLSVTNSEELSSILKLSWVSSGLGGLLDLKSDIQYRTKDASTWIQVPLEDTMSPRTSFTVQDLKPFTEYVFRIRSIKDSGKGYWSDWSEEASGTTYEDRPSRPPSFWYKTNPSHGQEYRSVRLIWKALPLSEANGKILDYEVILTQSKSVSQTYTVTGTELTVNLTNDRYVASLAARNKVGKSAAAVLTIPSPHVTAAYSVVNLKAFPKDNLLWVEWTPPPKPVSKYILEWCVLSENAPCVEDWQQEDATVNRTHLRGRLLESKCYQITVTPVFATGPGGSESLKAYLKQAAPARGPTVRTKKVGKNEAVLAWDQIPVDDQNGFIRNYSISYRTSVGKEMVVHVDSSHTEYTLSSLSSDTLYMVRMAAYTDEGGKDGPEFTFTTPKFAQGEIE

[3] = molecular target: T1, biotinylated murine gp130_(P496L) …; test: SPR; kinetic fit
[4] = molecular target: T2, biotinylated murine wildtype gp130 …; test: SPR; kinetic fit
[5] = molecular target: T1, biotinylated murine gp130_(P496L) …; test: SPR; equilibrium fit
[6] = molecular target: T2, biotinylated murine wildtype gp130 …; test: SPR; equilibrium fit

koff [1]: 0.00079 s⁻¹ | koff [2]: 0.00097 s⁻¹ | Kd [3]: 0.31 nM | Kd [4]: 0.37 nM | Kd [5]: 5.8 nM | Kd [6]: 5.5 nM
B1: HypIL-6 (human IL-6 fused by a short linker to domains D2 and D3 of IL-6Rα, single chain) (other)
chain: EEPQLSCFRKSPLSNVVCEWGPRSTPSLTTKAVLLVRKFQNSPAEDFQEPCQYSQESQKFSCQLAVPEGDSSFYIVSMCVASSVGSKFSKTQTFQGCGILQPDPPANITVTAVARNPRWLSVTWQDPHSWNSSFYRLRFELRYRAERSKTFTTWMVKDLQHHCVIHDAWSGLRHVVQLRAQEEFGQGEWSEWSPEAMGT[about 200 residues omitted here]
